In PubChem BioAssay AID686979 (National Center for Advancing Translational Sciences (NCATS), 2013):
Among all 420,000 compounds or so, about 50,000 (12%) were called active. Inconclusive results, whose numbers are uncertain, are shown with a selection of clear calls. Calls come from the whole dose curve; as a rule, active = well fitted inhibition curve with a large enough effect; inconclusive = small, poorly fitted or top-dose-only effect; inactive = flat fitted curve, though single readings scatter. No potency is given beside an inconclusive call; the fits are too rough.

assay: qHTS for Inhibitors of human tyrosyl-DNA phosphodiesterase 1 (TDP1): qHTS in cells in presence of CPT; details: chicken DT40 Tdp1-/-;hTDP1 cells + 20 nM CPT, ATP luminescence, 48 h; activity change, negative = growth inhibition: at 46.2 µM (top of the series); note: nearly all actives have a fitted effect of over 55% in size
In short: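 Chicken DT40 Tdp1-/- cells stably complemented with human TDP1 were seeded at 400 cells/well in medium containing 20 nM camptothecin, exposed to pin-transferred compounds, and grown at 37 °C for at least 48 hr. Viability was read as ATP luminescence.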
% is set by controls: 0 for no effect and ±100 for the full control effect; potency is the fitted concentration of half-maximal effect; tags give direction and shape of the fitted curve.

| Structure (SMILES) | Potency | activity change, negative = growth inhibition |
| --- | --- | --- |
| COc1ccc(N(CC2CO2)S(=O)(=O)c2ccccc2)cc1 (configuration not stated) | inconclusive [inhibitor, single point] | – |
| COc1ccccc1NC(=S)NC(=O)c1ccc(Cn2cc(Br)cn2)cc1 | – | inactive: -15% |
| COc1ccc(NC(=O)c2cc(C)cc(C)c2)cc1[N+](=O)[O-] | inconclusive [inhibitor, single point] | – |
| CC1OCC23CC[C@@]4(C)CCC(C)(C)C[C@H]4[C@]2(C)CCC12C3CC[C@@]1(C)C2C(=O)CC(=O)[C@@H]1C (some centres not stated) | – | inactive: 13.6% [at 9.04 µM] |
| COc1ccc(CC(=O)N2CCc3cc(OC)c(OC)cc3C2C)c(OC)c1 (configuration not stated) | inconclusive [inhibitor, single point] | – |
| CC(=O)c1c(C(C)=O)c(C)n(-c2nc(-c3ccc(Br)cc3)c(C)s2)c1C | active: 18.4 µM | – |
| Cc1cc(N2CCCCC2)nc2ccc(NC(=O)CCC(=O)N3CCN(c4ccccc4)CC3)cc12 | inconclusive [inhibitor, single point] | – |
| Cc1sc(NC(=O)CN(Cc2ccc(F)cc2)C(=O)C(C)C)c(C(N)=O)c1C | active: 3.66 µM | – |
| O=C(NNC(=O)c1ccccc1[N+](=O)[O-])Nc1ccc(Cl)cc1 | – | inactive: 8.86% |
| O=C(CSc1nc(Nc2ccccc2)nc(N2CCOCC2)n1)Nc1ccc(Br)cc1F | inconclusive [inhibitor, single point] | – |
| COc1ccc(NS(=O)(=O)c2ccc(C)c(C(=O)N(C)Cc3ccc(OC)cc3OC)c2)cc1 | inconclusive [inhibitor, single point] | – |
| CC12CC3CC(C)(C1)CC(C(=O)NCc1ccco1)(C3)C2 | inconclusive [inhibitor, single point] | – |
| Cc1cc(C(=O)NCc2ccccc2Cl)n(-c2ccccc2)n1 | inconclusive [inhibitor, single point] | – |
| COc1ccc(NC(=O)CN2C(=O)c3cccnc3Sc3ccccc32)cc1OC | inconclusive [inhibitor, single point] | – |
| N=c1c2c(n(Cc3ccc(Cl)c(Cl)c3)c3c1CCC3)CCCC2 | active: 2.91 µM | – |
| COc1cc(/C=N\NC(=O)c2sc(N)nc2C)cc(OC)c1OC | inconclusive [inhibitor, single point] | – |
| CCn1c(C)nc2cc(C(=O)N/N=C(\C)c3ccccc3O)ccc21 | active: 3.66 µM | – |
| COc1ccc(NC(=O)/C(C#N)=C\c2ccc(-c3cc(C(=O)O)ccc3C)o2)cc1 | – | inactive: -25% |
| CCC(Cc1ccccc1)OC(=O)c1ccccc1C(=O)O (configuration not stated) | – | inactive: 0.0808% |
| O=S(=O)(NCc1ccc(F)cc1)c1cc(Br)ccc1Br | inconclusive [inhibitor, single point] | – |
| CC(C)Sc1snnc1-c1ccccc1 | – | inactive: -6.91% |
| COc1ccc(CCNC(=O)C(C)n2c(=O)cc(-c3ccccc3)c3c(C)nn(C)c32)cc1OC (configuration not stated) | inconclusive [inhibitor, single point] | – |
| Cc1ccc(-c2csc(C(C)(O)c3cccc(F)c3)n2)cc1C (configuration not stated) | inconclusive [inhibitor, single point] | – |
| COC(=O)c1ccccc1NC(=S)NC(=O)CC(C)C | – | inactive: -26.4% |

| Structure (SMILES) | Potency | activity change, negative = growth inhibition |
| --- | --- | --- |
| O=C(COC(=O)c1ccccc1-n1cnnn1)c1ccc(F)cc1 | – | inactive: -3.78% |
| Cc1ccc(CNC(=O)Cc2ccc(-n3cccc3)cc2)cc1 | active: 1.3 µM | – |
| CN(C(=O)C(Cl)Cl)C1CC2C=CC1C2 (configuration not stated) | – | inactive: -26.7% |
| COc1cc(C(=O)NCCc2cc3c(OC)ccc(OC)c3[nH]c2=O)cc(OC)c1OC | inconclusive [inhibitor, single point] | – |
| COc1ccc(C2=Nc3ccccc3N(C(=O)Cc3cc(OC)cc(OC)c3)C2C(=O)NC(C)C)cc1 (configuration not stated) | inconclusive [inhibitor, single point] | – |
| C=CC[C@@H](CC(=O)N[C@@H](CO)Cc1ccccc1)C(=O)N[C@H](COC(=O)[C@@H](CC=C)Cc1ccc(F)cc1)C(C)(C)C | active: 16.4 µM | – |
| Cc1ccn2c(=O)cc(C)nc2c1 | – | inactive: 8.76% |
| N#Cc1ccc(CSc2nnc(Cc3cccs3)n2Cc2ccco2)cc1 | inconclusive [inhibitor, single point] | – |
| O=C(NCCc1cccs1)C1CC(c2ccccc2F)=NO1 (configuration not stated) | – | inactive: -22.8% |
| CCOc1ccc(N(CC)C(=O)c2cc3c(s2)-c2ccccc2OC3)cc1 | inconclusive [inhibitor, single point] | – |
| COc1ccc(-c2csc(C(O)c3ccc(F)c(OC)c3)n2)cc1 (configuration not stated) | active: 13 µM | – |
| CS(=O)(=O)N1CCC2(CCCN(Cc3cc(C(F)(F)F)cc(C(F)(F)F)c3)C2)CC1 | inconclusive [inhibitor, single point] | – |
| CCOC(=O)C(NC(C)=O)(NC(C)C)C(F)(F)F (configuration not stated) | – | inactive: -10% |
| COc1ccccc1-c1noc(-c2cccs2)n1 | inconclusive [inhibitor, single point] | – |
| O=c1c2ccccc2nc(/C=C/c2cccnc2)n1CCc1ccccc1 | active: 14.6 µM | – |
| O=C(NC1CCCCC1)C(=O)c1c(-c2ccccc2)[nH]c2ccccc12 | inconclusive [inhibitor, single point] | – |
| COC(=O)[C@@]12C[C@@H](CC(=O)NCc3ccc(C)o3)C(=O)N(CCc3ccc(OC)c(OC)c3)C1=CCC(C)(C)C2 | active: 9.2 µM | – |
| O=C(Cn1nnc(-c2cccc(C(F)(F)F)c2)n1)NC(=O)NCc1ccco1 | – | inactive: 0.555% |
| COc1cc(Cl)c(C)cc1NC(=O)CC1SC(N2CCOCC2)=NC1=O (configuration not stated) | – | inactive: -8.92% |
| CC(Oc1ccc2c(-c3ccccc3)cc(=O)oc2c1)C(=O)NCC(O)c1ccccc1 (configuration not stated) | inconclusive [inhibitor, single point] | – |
| COc1ccc(-n2nnnc2SCC(=O)Nc2cccc(NC(C)=O)c2)cc1OC | inconclusive [inhibitor, single point] | – |
| O=c1cnn(-c2ccc(Cl)cc2Cl)c(-c2ccccc2)c1 | inconclusive [inhibitor, single point] | – |
| COc1cccc(N2CCN(C(=O)c3nn(C)c4c3CSc3ccc(C)cc3-4)CC2)c1 | inconclusive [inhibitor, single point] | – |
